Read counts are not given, so values of variants with three or more changes are uncertain.

To fix the notation:
B1: LINE1-mini (parent)
chain: GGCAGAGCUCAACACAGCGUGGCAAAGUGGCUGUGGCUAGACUGCC

In this series the parent is B1. The series is described as follows: self-cleavage, relative activity (ratio to wild type); higher = more cleavage; in vitro, sequencing; the parent is a self-cleaving ribozyme.
In the case of G7U C13A G30U C42A C45U, the self-cleavage was determined as 0.03. Take G7U C18U U20A A24U: the self-cleavage was found to be 0.08. With G7U C13A G19U G21C, the self-cleavage is 0.02.

As for C8A A14C C18A G21C C37G U43A, the self-cleavage worked out at 0.01. For the variant C8A A12C G19C A39U, the self-cleavage worked out at 0.01. As to C8A A26G U32A, the self-cleavage is 0.23. For C8A C15A G35C A41U, the self-cleavage came to 0.13. Then C8A C23U U28C G35U G40U C45A, with 0.02. For the variant C8A G30U G35C C45A, the self-cleavage was 0.08.

G7U C15U G17C A26C A41U: the self-cleavage came out at 0.02.

Regarding C8A C18G U34A, the self-cleavage is 0.13. For the variant C8A A11G U20G, the self-cleavage stood at 0.02. With C8A A11U A25U G27U G30U C37G, the self-cleavage stood at 0. Then C8A U20A G22A, with 0.05; and C8A C15G G19A U38C, with 0.61. G7U C15A G29U G33A U34A: the self-cleavage turned out to be 0.02. The same measure for C8A G17A U32A A39C U43A: 0.03.

C8A C10U C13A G17C G40U: the self-cleavage was determined as 0.05. Regarding C8A C15A C18U G22U A24C, the self-cleavage came to 0.09.

Consider C8A A16C C37U C45G, for which the self-cleavage is 0.22. G7U U20G A26C: the self-cleavage amounted to 0.09. As to C8A G22A A25G A26C, the self-cleavage was 0.16. Regarding C8A C18U G21U G33A, the self-cleavage was 0.05. For G7U G19C G40C, the self-cleavage came to 0.3. With C8A A11G C31G, the self-cleavage is 0.01. Consider G7U G30C C46A, for which the self-cleavage came out at 0.06.

In the case of G7U G21U C31G, the self-cleavage amounted to 0.07. As for C8A A12U C13G G30A, the self-cleavage amounted to 0.03. The same measure for C8A G17A G40U: 0.25. The same measure for G7U G30C G40C: 0.24; for C8A U34A G36C C42G: 0.09. As for C8A C18U U34A C46U, the self-cleavage was 0.17. For the variant C8A G27A C46U, the self-cleavage is 0.1.

Consider C8A C10A A11U G35C G36C, for which the self-cleavage was found to be 0.02. The same measure for G7U U34C G44A: 0.15. Take C8A A11G U34C G35U C42G: the self-cleavage was 0.01. C8A C10U C18G: the self-cleavage came out at 0.05. The same measure for C8A A11U G17A A39C U43A: 0.06; for G7U U9A C13G G33A G36U A39U: 0.02. With G7U U9A G21U G40U, the self-cleavage is 0.07. Then G7U C13G G22A G44U, with 0.29; and C8A C13U C18G A41C C42U, with 0.17. For G7U C18U G40U, the self-cleavage is 0.04. The same measure for C8A A12U G27C: 0.04. In the case of C8A C10U A25G, the self-cleavage turned out to be 0.08. In the case of G7U C13U A14U G29C, the self-cleavage was 0.19. Regarding C8A G19A C46A, the self-cleavage amounted to 0.12. With C8A A26C U32C U38A A39G, the self-cleavage worked out at 0.53.

Regarding C8G A12G U28C G29C, the self-cleavage amounted to 0.01. C8A A24U G30U G36U G40U: the self-cleavage was found to be 0.25.

Turning to C8G A14C G21A U28C G30C C37G C46U, the self-cleavage was determined as 0.02. Consider C8A C10G G17C G21C, for which the self-cleavage worked out at 0.02.

With C8A C15U G33A, the self-cleavage came out at 0.74. G7U G19C A25U G27U G33U C42U: the self-cleavage was 0.01. In the case of C8A C15A C23G G30A, the self-cleavage was found to be 0.02. With G7U C18A G19A C31A U34A A41U, the self-cleavage was determined as 0.

Regarding G7U G35U C45U, the self-cleavage was 0.02. Consider C8A C13U U28A, for which the self-cleavage was determined as 0.31. For the variant G7U G17C U38A C42U, the self-cleavage is 0.01. Then C8A G29A U32C, with 0.14; and C8A C13A U34A, with 0.07. C8A C10A A14G A16U G17C: the self-cleavage came out at 0.02. For G7U G29A G36A, the self-cleavage stood at 0.09. For G7U C13G G27C, the self-cleavage worked out at 0.1.

Turning to C8G A16G G19U U20A, the self-cleavage stood at 0.02. Turning to C8G A16G C23G G27A, the self-cleavage is 0.04. Turning to G7U C10U A11U C13G U20G A39U C42G, the self-cleavage was 0.04.

With C8A G27U G33A C45A, the self-cleavage stood at 0.46. As for C8A A12C C46G, the self-cleavage worked out at 0.01.

In the case of C8A A12U G21A A26U G40U, the self-cleavage was 0.72.

With C8A A11G A12U C23A C46A, the self-cleavage was found to be 0. Then C8G A12G A16U C18U C46U, with 0.01; and C8G A11U C13G G27C, with 0.01; and G7U G40A G44A, with 0.13.

On to C8A G21A C46G, for which the self-cleavage came to 0.38.

In the case of C8A U9C G27U G29A G40U U43G, the self-cleavage came to 0.59. Consider C8A U9C A12G G36A, for which the self-cleavage was found to be 0.06.

Turning to C8A G22U G40U, the self-cleavage came to 0.27. Consider C8A C15U C18U G19C U20A G22A U28C, for which the self-cleavage was found to be 0.25. As to C8G A14U G30U U34A, the self-cleavage turned out to be 0.04. As to C8A U20C A24C G27U, the self-cleavage was found to be 0.11. Turning to C8A G19A A26U U32C G40U, the self-cleavage was determined as 0.02. C8A G44U C46U: the self-cleavage is 0.02. In the case of C8A G22C A39G C42G, the self-cleavage was 0.14. As for G7U C13U G22C C37G, the self-cleavage was 0.02. Turning to C8A C15A G36A U43G, the self-cleavage stood at 0.07. For C8A C10A C15U A16U A25G G44A, the self-cleavage was 0.06. For the variant C8G A24U A25C A39U, the self-cleavage was determined as 0.01. Consider C8A C10U G22U, for which the self-cleavage was found to be 0.14. Regarding C8A A24U C37A, the self-cleavage was found to be 0.3. For C8A C31A G35A C37A A41U U43G, the self-cleavage was 0.18. The same measure for C8A A11U C15U C31U U43A: 0.02. On to G7U C10U A11C, for which the self-cleavage was 0.06. On to G7U C23A U34A, for which the self-cleavage came to 0.01. On to G7U C15U G29U, for which the self-cleavage was determined as 0.04.

With G7U C15A A16G G21U, the self-cleavage amounted to 0.07. With C8A C10A G17C G21A, the self-cleavage was 0.11.

Consider G7U C13U A25C A39U, for which the self-cleavage was 0.09. Then C8G A11C G17U A25G G27U G33U, with 0.01; and C8A C18A G27U U32G, with 0.14. On to C8A U9G G27U, for which the self-cleavage amounted to 0.01.

For C8A A16U G30U, the self-cleavage was determined as 0.24. G7U G29U C46U: the self-cleavage stood at 0.05. In the case of C8A A24U G27U G29C G36U C45U, the self-cleavage is 0.21. In the case of G7U C13G G19U, the self-cleavage turned out to be 0.13.

Regarding C8A C10A C23G, the self-cleavage turned out to be 0.01. As to C8A A12C G30A G40U A41G, the self-cleavage worked out at 0.02.

As for C8A U9C C46G, the self-cleavage was found to be 0.17.

Take C8A G35A C46A: the self-cleavage is 0.15.

C8A A11C G36U: the self-cleavage is 0.04. As for G7U C15A G19U G36C C37U, the self-cleavage is 0.11.

Regarding G7U U9G U32C G33U, the self-cleavage was 0.04. Then G7U U9A G17C C45U, with 0.12; and C8G A14U G44A, with 0.06; and G7U G30A U38G, with 0.01. As to C8A C13G A16G A25U G33A G35C, the self-cleavage is 0.05. On to G7U U9A U38A, for which the self-cleavage turned out to be 0.01. As to C8A U9G C15G G35C, the self-cleavage stood at 0. Then C8A G19C U28C G36U, with 0.04; and C8A A25C U43C, with 0.04; and C8G A11C G30A U38C G40U, with 0.01. As to G7U C13A G17C G29A, the self-cleavage amounted to 0.05. The same measure for C8A G22A A25G G40U: 0.33; for C8A C13U A41C: 0.06; for C8G A14C A25G: 0.02. C8A C13G G33U: the self-cleavage is 0.08. C8A C31U G33A: the self-cleavage was found to be 0.08.

Regarding C8A G17C A41C, the self-cleavage was determined as 0.29. Take C8A C18G G35C: the self-cleavage was determined as 0.08. With G7U C15G U20C U34A, the self-cleavage came out at 0.13.

Take G7U C10G A25C C46A: the self-cleavage was 0.03. With G7U G40U C42G U43A, the self-cleavage was determined as 0.3. With G7U C31G C46G, the self-cleavage amounted to 0.06.

As for C8A G19C C31A, the self-cleavage amounted to 0.04.

G7U U20A C23A C31G G44C: the self-cleavage was 0.01. With G7U U9A A14G, the self-cleavage stood at 0.05. For G7U C15U A25G U32G G44U C46A, the self-cleavage worked out at 0.19. On to C8A C15A G29U, for which the self-cleavage is 0.17. The same measure for G7U C13U A24C U32A: 0.17; for C8A G29U C46A: 0.49; for C8A G29U C46U: 0.44. The same measure for C8A U20C G33U: 0.06; for C8A C15A A16U: 0.11; for C8A C45G C46U: 0.68. Consider C8A A26C C37U, for which the self-cleavage was 0.11. Take C8A C15G G17A C18A C42A: the self-cleavage came to 0.01. The same measure for C8A G17A G35A A39U A41C: 0.52; for G7U U9A U20A: 0.07; for C8A C23A G33C G40C: 0.06.

With G7U U20A G36A, the self-cleavage is 0.04. The same measure for C8A C37G C42G C46U: 0.02; for G7U U32C G44U: 0.06. As for C8A A26G U38A C42A, the self-cleavage amounted to 0.12. Regarding C8A C10U A11C U28G C31A, the self-cleavage was determined as 0.01. Regarding C8A A14U C18G G21C, the self-cleavage was found to be 0.03.

As for C8A G19A G27U A41U U43C G44U C45G, the self-cleavage is 0.01. In the case of C8A C37G G44U, the self-cleavage is 0.13. With C8A A24G C42U, the self-cleavage is 0.23. For C8A G21C G36U C42A, the self-cleavage was found to be 0.06. In the case of G7U C37G G40C, the self-cleavage was found to be 0.09. As to G7U C37G G40U, the self-cleavage is 0.17. For the variant G7U C31A C42G, the self-cleavage stood at 0.06. As to G7U C10G C15G C42U, the self-cleavage stood at 0.01. The same measure for C8A C15U G17U G29C: 0.2.

On to C8A A25C G29C C42A, for which the self-cleavage was determined as 0.05.

Consider C8A C13U C18A G33U A39U C45A, for which the self-cleavage worked out at 0.02. Then G7U C13U U20G, with 0.03.

The record behind these values is the RNAGym collection of RNA variant scans (doi:10.7554/elife.90254).
